B1: tRNA (parent)
chain: CUCUCGGUAGCCAAGUUGGUUUAAGGCGCAAGACUUUAAUUUAUCACUACGAAAUCUUGAGAUCGGGCGUUCGACUCGCCCCCGGGAGAUUUUUUCCUCGAGCAA

This passage reports nonsense suppression results from the RNAGym collection of RNA variant scans (doi:10.1101/gad.245936.114).

Variants at the floor of the assay are shown more often than the library holds them.

Variants of B1 are the subject of this series. The experiment in a line: nonsense suppression (GFP-seq) (ratio to wild type); higher = more function; SUP4oc tRNA, yeast GFP reporter sort-seq. The procedure, abridged: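 Each variant's nonsense suppression (GFPSEQ) is a cell-share-weighted bin median GFP/RFP relative to the unmutated parent tRNA. Yeast with genome-integrated tRNA variants from a ~3% random-mutation library, a galactose-driven GFP ochre reporter and RFP were grown in raffinose/galactose medium with 80 mg/L adenine, then sorted into GFP/RFP bins for Illumina sequencing. Variants needed ≥100 reads and ≥30 cells.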
With U2A G18U, the nonsense suppression is not above 0.026.
Regarding A9G A30G G32C G61U G67U, the nonsense suppression was not above 0.026.
On to A14C A30G C72U, for which the nonsense suppression is not above 0.026.
With G18C, the nonsense suppression was not above 0.026.
As for G6U A33G, the figure is not above 0.026; as for A14G A23G A33G A54U U76C C82U, not above 0.026; as for U2G U35C G78U C83U, not above 0.026.
Regarding A14C G15U G61U C75A, the nonsense suppression is not above 0.026.
With A9G U57G G59C G67A U70C G86A, the nonsense suppression is not above 0.026.
Consider G10U A30G G69A, for which the nonsense suppression is not above 0.026.
As to G28U G66U, the nonsense suppression is not above 0.026.
Take U22C C56U: the nonsense suppression came out at 0.0509.
Regarding A13U A30C, the nonsense suppression is not above 0.026.
In the case of U22A G78A, the nonsense suppression stood at 0.283.
Regarding A24C A33C G59A, the nonsense suppression is not above 0.026.
As to A62U G66C C82G, the nonsense suppression was not above 0.026.
To U2A G28U G32A A74G belongs not above 0.026; to U58G G61A, not above 0.026.
As for G69A G88C, the figure is not above 0.026; as for G19C A31G C34G U70G, not above 0.026.
Take U2A C27G: the nonsense suppression was not above 0.026.
U2A C27U: the nonsense suppression stood at 0.0357.
To C34G U70G belongs not above 0.026; to C34G U70A, not above 0.026; to G26U C29U, not above 0.026.
As for A9U U21A A54G G69U U76G, the figure is not above 0.026; as for C5G C12A C29U, not above 0.026.
With C1G U4G G7C U55C G69C C72A, the nonsense suppression is not above 0.026.
Turning to A9G C79G, the nonsense suppression is not above 0.026.
As to G32U U71A, the nonsense suppression is not above 0.026.
As for A60C C64A C83A, the figure is not above 0.026; as for G61U C75G, 1.08.
On to U2G C75A G84C, for which the nonsense suppression was not above 0.026.
As for A30G U35A, the figure is not above 0.026; as for C5A G78U C81G, not above 0.026; as for G59U U70C G78A, not above 0.026.
To C34G C64U belongs not above 0.026.
As for A9U U16A C27A C56U G78A, the figure is not above 0.026; as for C11U U17G U55G U63C C79U C82G, not above 0.026; as for U55G G59C C79U C82G, not above 0.026.
On to U16C C34A C75U, for which the nonsense suppression was not above 0.026.
With G28C G78A, the nonsense suppression amounted to 0.0288.
On to C1G C3A U35G, for which the nonsense suppression is not above 0.026.
For G19A A30C, the nonsense suppression was not above 0.026.
As for G84C A87G, the figure is not above 0.026.
As for G7U C27U, the figure is not above 0.026; as for U55G A74G, not above 0.026.
Regarding C34A C81G C82A, the nonsense suppression was not above 0.026.
As for A13C G61A G85C, the figure is not above 0.026; as for C1A A23C C29G A30G A74U G86C, not above 0.026.
As for U17G A24U U58G U63G, the figure is not above 0.026; as for G28U U63C G78C C83G, not above 0.026.
As for A9C U55A, the figure is not above 0.026; as for C3A U20C, not above 0.026.
For the variant G26C U63A C68U G73A, the nonsense suppression is not above 0.026.
To A30G A31G C81U belongs not above 0.026; to C5G G25A A89G, not above 0.026; to G26C C68U, not above 0.026.
To U4G A31U G86A belongs not above 0.026; to U22G G73C, not above 0.026.
To A13C G59A U76A belongs not above 0.026; to G18A A60G G67C, not above 0.026; to G7A U57G, not above 0.026.
With U4G G59U C75G C80A, the nonsense suppression is not above 0.026.
As for C34A U55C U57A G73A U76G, the figure is not above 0.026.
To G26C A33G C77G belongs not above 0.026.
As for U55A A89U, the figure is not above 0.026; as for A9U A14U, 0.0588.
With G18U U20A U58A A60U C77G G84A, the nonsense suppression was not above 0.026.
To U20A G84U A89G belongs not above 0.026; to C1U U2A A54U, not above 0.026.
As for G59C C72A G78C G85C, the figure is not above 0.026.
As for G10A C77U, the figure is not above 0.026; as for G85C, 0.163; as for C5A C11A U35G G66A, not above 0.026.
In the case of C1U G19U U70G, the nonsense suppression was not above 0.026.
As for A23C A54U, the nonsense suppression was not above 0.026.
A13C U76C G78C: the nonsense suppression is not above 0.026.
To G6U A23G U63A belongs not above 0.026; to U17A U76C, 1.06.
Regarding C56A G59C C79A, the nonsense suppression is not above 0.026.
As for C5G G59A C81G, the figure is not above 0.026; as for C34A G78U, not above 0.026; as for C27G A54U G86A, not above 0.026.
C3U G26C: the nonsense suppression was not above 0.026.
To C27U G65U belongs not above 0.026; to C11A U17G, not above 0.026; to C29A U55A G66U G69A G88C, not above 0.026.
To C27A C64G belongs not above 0.026; to U2G U8C G69C U76A, not above 0.026.
On to A13C A14G U17A C56U U58C U71G, for which the nonsense suppression is not above 0.026.
To A54C U57C G65A U70C A87G belongs not above 0.026; to U20A U70G G85C, not above 0.026.
As for U58C G65C G86U, the figure is not above 0.026; as for G15U A24G U76A C81G, not above 0.026.
As for U2G A33G, the figure is not above 0.026.
On to C29G C81A, for which the nonsense suppression was not above 0.026.
As for G19A G66U, the figure is not above 0.026; as for C1U A13C C29G U63A A74U U76A G78C C79U, not above 0.026; as for U20C A33C U76A, not above 0.026.
To C56U U58C G66U belongs not above 0.026.
To U63G G73A belongs 0.189; to U20C A33G C56G, not above 0.026.
With C3A U17C A62C C77A, the nonsense suppression was not above 0.026.
As for C29U U35C, the nonsense suppression worked out at 0.0545.
Take C29U G32U U57A A62G U63C G69C: the nonsense suppression is not above 0.026.
Take C1G G25U U35G A62C G69U: the nonsense suppression was not above 0.026.
As for C11U C79U, the figure is not above 0.026; as for G18C G67C, not above 0.026.
Regarding C79G G85C, the nonsense suppression was not above 0.026.
Consider A31G A60C C82U, for which the nonsense suppression was not above 0.026.
On to A23C G28C, for which the nonsense suppression was not above 0.026.
For U21C U58A A60U G67U, the nonsense suppression is not above 0.026.
As for C27G U57C G59U G86U, the nonsense suppression is not above 0.026.
To A13G U35C A60C C81U belongs not above 0.026; to G15A U20G G25C A54U, not above 0.026.
As for U20A C77G G78A C80A, the figure is not above 0.026; as for A13U C82G, not above 0.026; as for A13U C27U A60C G78A, not above 0.026.
Regarding C1U U21G G66A, the nonsense suppression is not above 0.026.
As for G28A C29U A60C U70A, the figure is not above 0.026.
To G10U A14G C83G belongs not above 0.026.
To A33U C79A belongs not above 0.026; to U4C G6U G28A, 0.427; to G28C U76A C81G, not above 0.026.
As for C5A C80A G88A, the nonsense suppression is not above 0.026.
As for C5A C12U G18U U70A C79G, the figure is not above 0.026; as for C1A G69U, not above 0.026.
As for G59C G66A C68G, the figure is not above 0.026; as for A74C C79U, 0.037.
To G61A G65C U71A C80U belongs not above 0.026.
For U16A A23G A31G, the nonsense suppression is not above 0.026.
As for A31C U57G G59C A74C G78U G86A, the figure is not above 0.026; as for C1G A30U A62U, not above 0.026; as for G28A G67C, not above 0.026.
As for U4G G25U A60U G85A, the figure is not above 0.026; as for C5A U55A, not above 0.026.
To G15A C75U A89C belongs not above 0.026; to U2G C12U A89C, not above 0.026; to U20C C29U, 0.0276.
In the case of G7U A74U G85A, the nonsense suppression is not above 0.026.
To U21C A60C C80G belongs not above 0.026; to U58G C64G G78A G86C, not above 0.026; to U17C G59U, not above 0.026.
As for G7U A9G G15U A23U C34G G59U G67A C68U G85U, the figure is not above 0.026; as for A30G C77G, not above 0.026.
For G69A G78U, the nonsense suppression is not above 0.026.
As for C1G A30U, the nonsense suppression was not above 0.026.
For C1U G88C, the nonsense suppression is not above 0.026.
Take G15U G88A: the nonsense suppression was not above 0.026.
To C12A G15C A33C U71C belongs not above 0.026.
For A9U G15A C27U U55C A60C, the nonsense suppression was not above 0.026.
Consider G6C U55A U58G G78C, for which the nonsense suppression is not above 0.026.
As to C27G A62G, the nonsense suppression was not above 0.026.
As for A24C G85U, the figure is 0.258; as for C1U C77G, not above 0.026; as for C27G C29U U55A, not above 0.026.
To C81G A87C belongs not above 0.026; to A9G A62G C77G, not above 0.026; to C11U C77G, not above 0.026.
U21C G67U: the nonsense suppression was not above 0.026.
Turning to G7U A13G C80A, the nonsense suppression is not above 0.026.
As to A14U U57G U71C, the nonsense suppression is not above 0.026.
As to C1G C12U, the nonsense suppression is not above 0.026.
As for G26C A54G U63G, the nonsense suppression was not above 0.026.
To U4A G61U belongs 0.194; to U17A U55G, not above 0.026.
